# Reference: PubChem BioAssay (NCATS)
# Inconclusive results, whose numbers are uncertain, are shown with a selection of clear calls. Potencies of inconclusive entries are left out as doubtful fits. A structure can be active in one record and inactive in another. Calls of active or inactive are those of the source. The call rests on the fitted dose curve; in most records, active means well fitted inhibition curve with a large enough effect; inconclusive means small, poorly fitted or top-dose-only effect; inactive means flat fitted curve, though single readings scatter.
# Target: Glutathione peroxidase 1 (Homo sapiens) (UniProt P07203)
# UniProt P07203, sequence (P07203 whole entry, looked up): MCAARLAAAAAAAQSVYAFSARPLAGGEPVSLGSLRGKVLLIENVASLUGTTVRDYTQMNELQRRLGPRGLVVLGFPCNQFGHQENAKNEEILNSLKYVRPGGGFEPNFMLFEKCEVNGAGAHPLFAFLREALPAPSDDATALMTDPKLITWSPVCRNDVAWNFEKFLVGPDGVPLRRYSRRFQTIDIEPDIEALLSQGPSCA
# Assay: Primary qHTS Assay for Inhibitors of Recombinant Selenoprotein Glutathione Peroxidase 1 (GPX1) (AID 1845191)
# Details: recombinant GPX1, GR-coupled NADPH fluorescence, 15 min; series mostly up to 48.8 µM
# Summary of the method: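 NADPH consumption tracked by fluorescence at 340/450 nm between t=0 and t=15 min, room temperature. Final mix: 10 nM GPX1, 100 nM glutathione reductase, 1 mM GSH, 0.5 mM NADPH, 0.5 mM cumene hydroperoxide, 0.01% BSA; 30 min compound–enzyme preincubation.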
# Further: nearly all actives have a fitted effect of over 65% in size.
# Potency means the concentration at half of the fitted maximal effect; tags describe the fitted curve by direction and shape.
row,SMILES,Potency
1,CCCCCCCCCCCCCCCCOCCCOP(=O)(O)COC(CO)Cn1ccc(N)nc1=O (stereo not drawn),inactive
2,C=CC[C@@H]1/C=C(\C)C[C@H](C)C[C@H](OC)[C@H]2O[C@@](O)(C(=O)C(=O)N3CCCC[C@H]3C(=O)O[C@H](/C(C)=C/[C@@H]3CC[C@@H](O)[C@H](OC)C3)[C@H](C)[C@@H](O)CC1=O)[C@H](C)C[C@@H]2OC,active: 2.55 µM
3,O=c1sn(-c2cccc3ccccc23)c(=O)n1Cc1ccccc1,"inconclusive [inhibitor, single point]"

# Target: Phospholipid hydroperoxide glutathione peroxidase GPX4 (Homo sapiens) (UniProt P36969)
# UniProt P36969, sequence (P36969 whole entry, looked up): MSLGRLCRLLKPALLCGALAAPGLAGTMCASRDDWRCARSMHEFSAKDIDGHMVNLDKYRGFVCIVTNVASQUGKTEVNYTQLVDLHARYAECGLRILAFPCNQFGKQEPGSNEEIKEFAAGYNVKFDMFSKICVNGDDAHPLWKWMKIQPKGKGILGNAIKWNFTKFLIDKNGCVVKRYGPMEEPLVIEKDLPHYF
# Assay: Primary qHTS Assay for Inhibitors of Recombinant Selenoprotein Glutathione Peroxidase 4 (GPX4) (AID 1845192)
# Details: recombinant GPX4, GR-coupled NADPH fluorescence, 15 min; series mostly up to 50 µM
# Summary of the method: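 NADPH consumption followed by fluorescence at 340/450 nm, t=0 and after 15 min at room temperature. Reaction started with cumene hydroperoxide (0.5 mM final) after 30 min compound–GPX4 preincubation; final 200 nM GPX4, 100 nM GR, 1 mM GSH, 0.5 mM NADPH.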
row,SMILES,Potency
1,COc1ccc(-c2oc3ncnc(N)c3c2-c2ccc(NC(=O)Nc3cc(C(F)(F)F)ccc3F)cc2)cc1,"inconclusive [inhibitor, partial curve, poor fit]"
2,Cc1[nH]c(/C=C2\C(=O)Nc3ccccc32)c(C)c1CCC(=O)O,"inconclusive [inhibitor, single point]"
3,Cc1ccc(Nc2ncc3c(n2)N(C)C(=O)N(c2cc(NC(=O)c4cccc(C(F)(F)F)c4)ccc2C)C3)cn1,"inconclusive [inhibitor, single point]"
4,CNc1nc(Nc2cn(C(C)(C)C#N)nc2C)ncc1C(F)(F)F,inactive
5,C=CC[C@@H]1/C=C(\C)C[C@H](C)C[C@H](OC)[C@H]2O[C@@](O)(C(=O)C(=O)N3CCCC[C@H]3C(=O)O[C@H](/C(C)=C/[C@@H]3CC[C@@H](O)[C@H](OC)C3)[C@H](C)[C@@H](O)CC1=O)[C@H](C)C[C@@H]2OC,active: 2.82 µM
